Source: patent US8163870B2, “Channel forming peptides” (Kansas State University Research Foundation, priority 2000, dated 2012)
At least one peptide structure holds a part that was inferred or is arguable (an end, a ring closure or a residue). Some of these results come from one statement about several compounds together. No end group written: not given here.

Columns and labels:
[1] = tested on: MDCK cells; format: cell-based, canine
Excerpt: Cell culture: MDCK cells were a generous gift of Dr. Lawrence Sullivan (Kansas University Medical Center, Kansas City, Kans.). T84 cells were obtained from Dr. Daniel Devor (University of Pittsburgh, Pittsburgh, Pa.). MDCK and T84 cells were maintained with similar culture procedures. The culture medium was a 1:1 mixture of DMEM and Ham's F-12 (Gibco BRL, Grand Island, N.Y.) supplemented with 5% heat inactivated fetal bovine serum (BioWhittaker, Walkersville, Md.), and 1% penicillin and streptomycin (Gibco BRL). Cells were grown in plastic culture flasks in a humidified environment with 5% CO2 at 37° C. and passaged every 5-7 days. For Ussing chamber experiments, cells were plated on 1.13 cm^2 permeable supports (Snapwell™, Costar®, Cambridge, Mass.) at a density of approximately 1×10^6 cells/well and incubated in DMEM/F-12 supplemented with FBS and antibiotics (changed every other day) for 2-3 weeks prior to being mounted in modified Ussing flux chambers.
To form monolayers, the cells were plated onto the upper surface of a permeable membrane that forms the bottom of a plastic well. Two types were used. One was the Transwell™ insert (Costar®, Cambridge, Mass.) supported in a six-well tissue culture plate and the other type was the Snapwell™ (Costar®, Cambridge, Mass.). During incubation, the medium was replaced at 48-72 hour intervals. Confluent monolayers formed within 72 hours. Experiments were performed on the monolayers 6-9 days after the initial plating. Net fluid secretion responses were optimal after six days.
Solutions: Ringer solution was made fresh daily. The final concentration (in mM) was 120 NaCl, 25 NaHCO3 3.3 KH2HPO4, 0.8 K2HPO4, 1.2 MgCl2, 1.2 CaCl2, (290±2 mOsmol). All components of the Ringer solution were from Sigma (St. Louis, Mo.).
(§1) Epithelial electrical measurements: Transepithelial ion transport was evaluated in a modified Ussing chamber (Model DCV9, Navicyte, San Diego, Calif.). The Ussing chamber's fluid resistance compensation was completed in Ringer solution (see below). For electrical measurements cell monolayers were bathed in Ringer solution maintained at 37° C. and continuously bubbled with 5% CO2:95% O2. The transepithelial membrane potential (Vte) was clamped to zero and the transepithelial short circuit current (Isc), an indicator of net ion transport, was measured continuously with a voltage clamp apparatus (Model 558C, University of Iowa, Department of Bioengineering, Iowa City, Iowa). Data were digitally acquired at 1 Hz with a Macintosh computer (Apple Computer, Cuppertino, Calif.) using Aqknowledge software (ver. 3.2.6, BIOPAC Systems, Santa Barbara, Calif.) with an MP100A-CE interface.
as §1, with “Transepithelial” for “Epithelial electrical measurements: Transepithelial”, “(composition (in mM) was 120 NaCl, 25 NaHCO3 3.3 KH2HPO4, 0.8 K2HPO4, 1.2 MgCl2, 1.2 CaCl2).” for “(see below).”
MDCK cell monolayers (in the presence of 1-EBIO to maximize basolateral membrane K^+ conductance) were exposed on the apical aspect to escelating peptide concentrations. Maximal change in Isc (relative to the Isc prior to peptide exposure) was recorded following each increment in apical peptide concentration. […]

[2] = Chemical cross-linking (BS3) and SDS-PAGE, oligomeric state of peptide in solution; format: physicochemical; conditions: SDS-PAGE
Protocol: Chemical cross-linking: In order to visualize the oligomeric state of the peptide in solution a chemical cross-linking protocol was developed. Calculated amounts of each peptide were weighted out and dissolved in 1 mL of distilled water to make 1 mM stock solutions. A 100 mM stock solution of the chemical crosslinking reagent Bis[Sulfosuccinimidyl]suberate, BS^3, (Pierce Chemical Co., Rockford, Ill.) was prepared in dimethyl sulfoxide (DMSO). […] Sample were allowed to sit at room temperature for 15 minutes. 1-6 μL of 100 mM BS^3 was then added to the previously prepared peptide such that the crosslinking reagent was present in 20-fold excess. The final volume for each reaction was 100 μL. […] Each sample was then vacuum dried. Later dry samples were re-dissolved in 60 μL of distilled water along with 60 μL of a 2×-tricine SDS sample buffer (Novex, San Diego). All samples were then boiled at 100° C. for 5 minutes. 5 μL aliquots of each SDS boiled sample was then loaded into separate lanes of pre-cast, 1.0 mm, 10 well, 10-20% tricine gels (Novex, San Diego). Pre-made Novex tricine-SDS buffer was used in the electrophoresis. The reference well contained 1 μL of MultiMark® multi-colored molecular weight standard (Novex, San Diego). The electrophoresis was carried out at a constant 110 Volts for 90 minutes. The gel was then fixed in 40% methanol in water and the cross-linked peptides visualized using silver staining (SilverXpress® silver staining kit, Invitrogen, Carlsbad, Calif.).

[3] = tested on: human colonic epithelia (Caco-2); assay: gTE across human colonic epithelia; format: cell-based; conditions: unpublished observations
[4] = tested on: tight junction-associated proteins (actin, ZO-1, occludin) in MDCK monolayers; assay: Confocal microscopy, immunolocalization of tight-junction associated proteins; format: cell-based, canine; conditions: peptides 100 μM; EDTA 6 mM and hypotonic Ringer
Protocol: Confocal microscopy. Immunoreactivity to antibodies raised against tight-junction associated proteins was assessed by confocal microscopy (Zeiss, Thornwood, N.Y.). Samples for visualization were prepared from monolayers used in electrophysiological studies. After removal from Ussing chambers, monolayers were washed in Ringer solution and fixed overnight in 10% neutral buffered formalin. Monolayers were washed 3 times in PBS, permeabilized with 0.1% Triton X-100 in PBS, blocked with goat serum, and then exposed to primary antibody in a 1:500 dilution (rat anti-ZO-1, cat# MAB120, Chemicon, Temecula, Calif. or rabbit anti-occludin, cat.# 71-1500; Zymed, San Francisco, Calif.) for 1 hour at room temperature. After being washed 3 times in PBS, FITC-conjugated goat anti-rat (cat #AP136F, Chemicon) or goat anti-rabbit (cat #FI-1000; Vector Laboratories, Burlingame, Calif.) secondary antibodies were employed (1:1000 dilution) with exposure occurring for 1 hour at room temperature. TRITC-labeled phalloidin (0.1 mg/ml in methanol; Sigma Chemical Co.) was used for F-actin localization was applied concurrently with the secondary antibody. A KrAr laser was used to excite the fluorophores. Filter sets used for fluorescein were BP485/20 nm for excitation and BP515-540 nm for emission and for rhodamine BP530-585 nm for excitation and LP590 nm for emission.

## KKKKAARVGLGITTVLVTTIGLGVRAA [SEQ ID No. 27, KKKKAARVGL GITTVLVTTI GLGVRAA]
[1]; 100 μM final after 35 μM, MDCK monolayer
  ISC after exposure: 32 μA cm^−2
[1]; MDCK monolayers
  peptide concentration producing maximal effect on Isc (Imax): 100 µM
[1]; MDCK monolayers with 1-EBIO, apical escalating peptide concentrations
  increase in Isc: > 15 μA/cm^2
[1]; fit of modified Hill equation, MDCK monolayers, 1-EBIO
  predicted IMAX: 25.0 μA cm^−2
[1]; peptide at 100 μM
  Activity profile in MDCK cells: 20.3 at 100 μM μA/cm2
[2]
  monomeric fraction of cross-linked peptide: > 90%
[3]
  effect on gTE: stimulates gTE
[4]
  distribution of actin, occludin and ZO-1 immunoreactivity: unchanged
